Source: PubChem BioAssay AID1224863 (Southern Research Institute, 2016)
Where “and” joins values, the source holds several entries; their conditions need not be identical. Identical values can stand only once. Some of the results follow. These are further read-outs of the screen, such as a control signal, another cell line or another target. No call is given for them.

Columns and labels:
[1] = total CFTR protein upregulators, primary screen, cell-based, HeLa F508del-CFTR, immunofluorescence, viability (AID 1224863); settings: 24 h, stronger effect = higher value; min viability: measured here: HeLa viability, alamarBlue, dose 50, library dosed in µM unless noted; viability: measured here: primary viability 25 uM, at 25 µM, library dosed in µM unless noted;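 for fold increase: total CFTR protein by anti-CFTR immunofluorescence in fixed cells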
[2] = target: Cystic fibrosis transmembrane conductance regulator (Homo sapiens) (UniProt P13569); assay: as above; settings: 24 h, stronger effect = higher value; measured here: primary screen single dose 25 uM, at 25 µM, library dosed in µM unless noted
Sequence of UniProt P13569 (P13569 whole entry, looked up): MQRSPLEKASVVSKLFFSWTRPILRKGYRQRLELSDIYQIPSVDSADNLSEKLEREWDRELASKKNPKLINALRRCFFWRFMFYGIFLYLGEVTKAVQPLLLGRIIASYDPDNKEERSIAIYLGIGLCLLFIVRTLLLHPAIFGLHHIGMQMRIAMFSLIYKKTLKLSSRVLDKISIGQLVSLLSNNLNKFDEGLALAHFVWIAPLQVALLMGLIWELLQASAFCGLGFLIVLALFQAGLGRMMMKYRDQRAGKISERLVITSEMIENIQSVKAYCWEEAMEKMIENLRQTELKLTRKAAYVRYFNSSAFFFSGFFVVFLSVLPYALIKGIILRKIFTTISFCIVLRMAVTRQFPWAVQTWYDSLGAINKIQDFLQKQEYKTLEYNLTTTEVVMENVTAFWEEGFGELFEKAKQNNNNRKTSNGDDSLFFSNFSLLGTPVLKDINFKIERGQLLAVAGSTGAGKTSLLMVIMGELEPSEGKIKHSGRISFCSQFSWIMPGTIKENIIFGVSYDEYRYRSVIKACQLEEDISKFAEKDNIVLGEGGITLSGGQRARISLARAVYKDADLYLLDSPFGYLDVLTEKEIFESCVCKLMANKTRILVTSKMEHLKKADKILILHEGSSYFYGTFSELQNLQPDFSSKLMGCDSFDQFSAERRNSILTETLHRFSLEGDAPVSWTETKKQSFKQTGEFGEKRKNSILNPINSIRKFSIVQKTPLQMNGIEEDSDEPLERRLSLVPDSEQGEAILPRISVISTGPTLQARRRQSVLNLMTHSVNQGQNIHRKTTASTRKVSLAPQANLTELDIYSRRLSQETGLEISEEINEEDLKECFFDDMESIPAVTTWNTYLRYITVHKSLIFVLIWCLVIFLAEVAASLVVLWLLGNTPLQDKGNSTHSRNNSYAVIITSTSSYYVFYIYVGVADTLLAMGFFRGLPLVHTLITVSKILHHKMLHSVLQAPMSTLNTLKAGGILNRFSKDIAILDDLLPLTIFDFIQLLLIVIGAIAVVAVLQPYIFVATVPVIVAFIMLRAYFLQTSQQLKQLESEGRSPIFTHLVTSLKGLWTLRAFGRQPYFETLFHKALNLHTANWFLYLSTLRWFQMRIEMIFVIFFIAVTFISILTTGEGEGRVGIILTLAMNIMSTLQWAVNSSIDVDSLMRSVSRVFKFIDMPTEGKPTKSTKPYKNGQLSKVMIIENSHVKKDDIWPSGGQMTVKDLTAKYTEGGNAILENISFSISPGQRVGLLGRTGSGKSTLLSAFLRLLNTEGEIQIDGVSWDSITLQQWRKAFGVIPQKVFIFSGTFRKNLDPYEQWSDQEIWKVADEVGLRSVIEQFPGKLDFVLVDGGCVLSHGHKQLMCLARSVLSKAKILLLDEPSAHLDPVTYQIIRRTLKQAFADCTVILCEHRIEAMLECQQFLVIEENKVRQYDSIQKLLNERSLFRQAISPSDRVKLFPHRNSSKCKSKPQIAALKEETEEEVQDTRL

CN1C2CCC1CC(OC(=O)C(CO)c1ccccc1)C2 (stereo not given)
viability [1]: 83%
fold increase [2]: 1.05

O=C(OC[C@H]1O[C@H](OC(=O)c2cc(O)c(O)c(OC(=O)c3cc(O)c(O)c(O)c3)c2)[C@H](OC(=O)c2cc(O)c(O)c(OC(=O)c3cc(O)c(O)c(O)c3)c2)[C@@H](OC(=O)c2cc(O)c(O)c(OC(=O)c3cc(O)c(O)c(O)c3)c2)[C@@H]1OC(=O)c1cc(O)c(O)c(OC(=O)c2cc(O)c(O)c(O)c2)c1)c1cc(O)c(O)c(OC(=O)c2cc(O)c(O)c(O)c2)c1
min viability [1]: 66.9% [measured here: HeLa viability, alamarBlue, dose 3.13, library dosed in µM]
viability [1]: 83%
fold increase [2]: 1.9

CN(C)CCSc1nc2ccccc2c2nc(=O)c(-c3ccccc3)nn12
min viability [1]: 67.9% [measured here: HeLa viability, alamarBlue, dose 20, library dosed in µg/mL]
viability [1]: 83% [measured here: primary viability 10 ug/mL, library dosed in µg/mL]
fold increase [2]: 1.82 [measured here: primary screen 10 ug/mL, library dosed in µg/mL]

Cc1ccsc1/C=c1\s/c(=C\C(=O)c2ccco2)n(C)c1=O
min viability [1]: 75.8% [measured here: HeLa viability, alamarBlue, dose 0.078, library dosed in µg/mL]
viability [1]: 96% [measured here: primary viability 10 ug/mL, library dosed in µg/mL]
fold increase [2]: 3.01 [measured here: primary screen 10 ug/mL, library dosed in µg/mL]

CN(C/C=C/C#CC(C)(C)C)Cc1cccc2ccccc12
min viability [1]: 67.4% [measured here: HeLa viability, alamarBlue, dose 25, library dosed in µM]

CC[n+]1c(-c2ccccc2)c2cc(N)ccc2c2ccc(N)cc21
min viability [1]: 66%
viability [1]: 82%
fold increase [2]: 1.82

Cc1ccccc1Cn1ncc(Cl)c(Cl)c1=O
min viability [1]: 58.9% [measured here: HeLa viability, alamarBlue, dose 0.039, library dosed in µg/mL]
viability [1]: 73% [measured here: primary viability 10 ug/mL, library dosed in µg/mL]
fold increase [2]: 1.24 [measured here: primary screen 10 ug/mL, library dosed in µg/mL]

O=c1cc(CN2CCCCC2)[nH]c(=O)[nH]1
min viability [1]: 87.2% [measured here: HeLa viability, alamarBlue, dose 5, library dosed in µg/mL]
viability [1]: 68% [measured here: primary viability 10 ug/mL, library dosed in µg/mL]
fold increase [2]: 1.27 [measured here: primary screen 10 ug/mL, library dosed in µg/mL]

Cn1cc(C(=O)NC2CCN(C(=O)Nc3nnc(C4CC4)s3)CC2)cn1
min viability [1]: 66% [measured here: HeLa viability, alamarBlue, dose 0.039, library dosed in µg/mL]
viability [1]: 90% [measured here: primary viability 10 ug/mL, library dosed in µg/mL]
fold increase [2]: 1.7 [measured here: primary screen 10 ug/mL, library dosed in µg/mL]

N#Cc1nc2c(S(=O)(=O)c3ccccc3)c(N)n(Cc3cccnc3)c2nc1C#N
min viability [1]: 92.1% [measured here: HeLa viability, alamarBlue, dose 5, library dosed in µg/mL]
viability [1]: 73% [measured here: primary viability 10 ug/mL, library dosed in µg/mL]
fold increase [2]: 1.52 [measured here: primary screen 10 ug/mL, library dosed in µg/mL]

CCCCn1c(N)c(N(CCC(C)C)C(=O)CCNC(=O)NC23CC4CC(CC(C4)C2)C3)c(=O)[nH]c1=O
min viability [1]: 70.8% [measured here: HeLa viability, alamarBlue, dose 0.31, library dosed in µg/mL]
viability [1]: 100% [measured here: primary viability 10 ug/mL, library dosed in µg/mL]
fold increase [2]: 2.42 [measured here: primary screen 10 ug/mL, library dosed in µg/mL]

O=S(=O)(Nc1ccc(-c2cn3cccnc3n2)cc1)c1ccc2c(c1)OCCO2
min viability [1]: 67.9% [measured here: HeLa viability, alamarBlue, dose 20, library dosed in µg/mL]
viability [1]: 79% [measured here: primary viability 10 ug/mL, library dosed in µg/mL]
fold increase [2]: 3.94 [measured here: primary screen 10 ug/mL, library dosed in µg/mL]

CCC(C)(C)C(=O)O[C@H]1C[C@@H](C)C=C2C=C[C@H](C)[C@H](CC[C@@H]3C[C@@H](O)CC(=O)O3)[C@H]21
min viability [1]: 79.5% [measured here: HeLa viability, alamarBlue, dose 0.09, library dosed in µM]
viability [1]: 83% and 88%
fold increase [2]: 1.57 and 1.2 and 1.52

O=C1c2c(O)ccc(O)c2C(=O)c2c(NCCNCCO)ccc(NCCNCCO)c21
min viability [1]: 48.1%
viability [1]: 54% and 37% and 70%
fold increase [2]: 0.85 and 0.55 and 3.24

CC1CN(C(C)(C)CNC(=O)c2ccc(Br)s2)CC(C)O1 (stereo not given)
min viability [1]: 69.6% [measured here: HeLa viability, alamarBlue, dose 0.078, library dosed in µg/mL]
viability [1]: 95% [measured here: primary viability 10 ug/mL, library dosed in µg/mL]
fold increase [2]: 4.54 [measured here: primary screen 10 ug/mL, library dosed in µg/mL]

O=C1N=C(O)CN1/N=C/c1ccc(-c2ccc([N+](=O)[O-])cc2)o1
min viability [1]: 61% [measured here: HeLa viability, alamarBlue, dose 3.13, library dosed in µM]
viability [1]: 104%
fold increase [2]: 1.83

CCCCC1C(=O)N(c2ccccc2)N(c2ccc(O)cc2)C1=O (stereo not given)
min viability [1]: 62.6%
viability [1]: 84%
fold increase [2]: 1.94

Cc1ccc2c(COc3cccc4c3CCC4=O)cc(=O)oc2c1
min viability [1]: 66% [measured here: HeLa viability, alamarBlue, dose 2.5, library dosed in µg/mL]
viability [1]: 84% [measured here: primary viability 10 ug/mL, library dosed in µg/mL]
fold increase [2]: 1.74 [measured here: primary screen 10 ug/mL, library dosed in µg/mL]

Cc1nc(N2CCC3(CC2)OCCO3)c2c(-c3cccs3)csc2n1
min viability [1]: 62.4% [measured here: HeLa viability, alamarBlue, dose 5, library dosed in µg/mL]
viability [1]: 91% [measured here: primary viability 10 ug/mL, library dosed in µg/mL]
fold increase [2]: 1.62 [measured here: primary screen 10 ug/mL, library dosed in µg/mL]

COC(=O)c1ccoc1COC(=O)c1cc2c(cc1[N+](=O)[O-])OCO2
min viability [1]: 70.3% [measured here: HeLa viability, alamarBlue, dose 0.63, library dosed in µg/mL]
viability [1]: 106% [measured here: primary viability 10 ug/mL, library dosed in µg/mL]
fold increase [2]: 1.66 [measured here: primary screen 10 ug/mL, library dosed in µg/mL]

Oc1c(Cl)cc(Cl)c2cccnc12
min viability [1]: 59.9%
viability [1]: 75% and 73%
fold increase [2]: 1.76 and 1.16

O=C(NCCN1CCCCCC1=O)C1CCCC1
min viability [1]: 89.4% [measured here: HeLa viability, alamarBlue, dose 0.039, library dosed in µg/mL]
viability [1]: 92% [measured here: primary viability 10 ug/mL, library dosed in µg/mL]
fold increase [2]: 2.74 [measured here: primary screen 10 ug/mL, library dosed in µg/mL]

O=C(O)C[C@H](O)C[C@H](O)/C=C/c1c(C2CC2)nc2ccccc2c1-c1ccc(F)cc1
min viability [1]: 65.5% [measured here: HeLa viability, alamarBlue, dose 6.25, library dosed in µM]
viability [1]: 94%
fold increase [2]: 1.63

Cc1cc2oc(=O)cc(CN3C(=O)NC(C)(c4ccccc4Cl)C3=O)c2cc1C (stereo not given)
min viability [1]: 72.6% [measured here: HeLa viability, alamarBlue, dose 0.63, library dosed in µg/mL]
viability [1]: 63% [measured here: primary viability 10 ug/mL, library dosed in µg/mL]
fold increase [2]: 1.12 [measured here: primary screen 10 ug/mL, library dosed in µg/mL]

CC(C)C[C@@H](NC(=O)[C@H](Cc1ccccc1)NC(=O)c1cnccn1)B(O)O
min viability [1]: 51.7%
viability [1]: 63%
fold increase [2]: 2.94

CC[C@@]1(O)C(=O)OCc2c1cc1n(c2=O)Cc2cc3c(CN(C)C)c(O)ccc3nc2-1
min viability [1]: 68.5%
viability [1]: 108% and 78% and 77%
fold increase [2]: 1.01 and 1.33 and 1.53
